# Reference: the supplement of paper PMC8728848
# Some of the results follow.
# What was measured:
# Test in all cases: glycan array binding signal (z-score within array); higher = stronger binding
# Details in all cases: glycan notation: IUPAC condensed, linker removed
# [1] = target: GlcNAc(b1-4)GlcNAc(b1-4)GlcNAc(b1-4)GlcNAc(b1-4)GlcNAc(b1-4)GlcNAc
# In short: (§1)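 Negative Z-scores can be read as non-binding. The Z-score is calculated within each array and then averaged across arrays of one protein sequence at different concentrations or buffers and across linkers. Arrays, 3228 in all, were curated from the Consortium for Functional Glycomics database and kept only where the protein sequence was available.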
# [2] = target: GlcNAc(b1-4)[GlcNAc(b1-6)]GalNAc
# In short: as §1
# [3] = target: GlcNAc(b1-6)Gal(b1-4)GlcNAc
# In short: as §1
# GlcNAc(b1-6)GalNAc = target: GlcNAc(b1-6)GalNAc
# In short: as §1
# [4] = target: GlcNAc6S(b1-3)Gal(b1-4)GlcNAc
# In short: as §1
# Kdn(a2-3)Gal(b1-3)GalNAc = target: Kdn(a2-3)Gal(b1-3)GalNAc
# In short: as §1
# Kdn(a2-3)Gal(b1-3)GlcNAc = target: Kdn(a2-3)Gal(b1-3)GlcNAc
# In short: as §1
# Kdn(a2-3)Gal(b1-4)Glc = target: Kdn(a2-3)Gal(b1-4)Glc
# In short: as §1
# Kdn(a2-3)Gal(b1-4)GlcNAc = target: Kdn(a2-3)Gal(b1-4)GlcNAc
# In short: as §1
# [5] = target: Kdn(a2-3)Gal(b1-4)[Fuc(a1-3)]GlcNAc
# In short: as §1
# Kdn(a2-6)Gal(b1-4)GlcNAc = target: Kdn(a2-6)Gal(b1-4)GlcNAc
# In short: as §1
# [6] = target: Man(a1-2)Man(a1-2)Man(a1-3)Man
# In short: as §1
# [7] = target: Man(a1-2)Man(a1-2)Man(a1-6)[Man(a1-3)]Man
# In short: as §1
# Man(a1-2)Man(a1-3)Man = target: Man(a1-2)Man(a1-3)Man
# In short: as §1
# [8] = target: Man(a1-2)Man(a1-3)[Man(a1-2)Man(a1-6)]Man
# In short: as §1
# [9] = target: Man(a1-2)Man(a1-3)[Man(a1-2)Man(a1-6)]Man(a1-6)[Man(a1-2)Man(a1-2)Man(a1-3)]Man
# In short: as §1
# [10] = target: Man(a1-2)Man(a1-3)[Man(a1-2)Man(a1-6)]Man(a1-6)[Man(a1-2)Man(a1-2)Man(a1-3)]Man(b1-4)GlcNAc(b1-4)GlcNAc
# In short: as §1
# [11] = target: Man(a1-2)Man(a1-3)[Man(a1-6)]Man(a1-6)[Man(a1-2)Man(a1-3)]Man(b1-4)GlcNAc(b1-4)GlcNAc
# In short: as §1
# [12] = target: Man(a1-2)Man(a1-6)[Man(a1-3)]Man(a1-6)[Man(a1-2)Man(a1-2)Man(a1-3)]Man
# In short: as §1
# [13] = target: Man(a1-2)Man(a1-6)[Man(a1-3)]Man(a1-6)[Man(a1-2)Man(a1-2)Man(a1-3)]Man(b1-4)GlcNAc(b1-4)GlcNAc
# In short: as §1
# Man(a1-3)[Man(a1-6)]Man = target: Man(a1-3)[Man(a1-6)]Man
# In short: as §1
# [14] = target: Man(a1-3)[Man(a1-6)]Man(a1-6)[Man(a1-2)Man(a1-3)]Man(b1-4)GlcNAc(b1-4)GlcNAc
# In short: as §1
# [15] = target: Man(a1-3)[Man(a1-6)]Man(a1-6)[Man(a1-3)]Man
# In short: as §1
# [16] = target: Man(a1-3)[Man(a1-6)]Man(a1-6)[Man(a1-3)]Man(b1-4)GlcNAc(b1-4)GlcNAc
# In short: as §1
# [17] = target: Man(a1-3)[Man(a1-6)]Man(b1-4)GlcNAc(b1-4)GlcNAc
# In short: as §1
# [18] = target: Man(a1-3)[Man(a1-6)]Man(b1-4)GlcNAc(b1-4)[Fuc(a1-6)]GlcNAc
# In short: as §1
# Man(a1-6)Man = target: Man(a1-6)Man
# In short: as §1
# Man(b1-4)GlcNAc = target: Man(b1-4)GlcNAc
# In short: as §1
# MurNAc(b1-4)GlcNAc = target: MurNAc(b1-4)GlcNAc
# In short: as §1
# Neu5Ac(a2-3)Gal = target: Neu5Ac(a2-3)Gal
# In short: as §1
# [19] = target: Neu5Ac(a2-3)Gal(b1-3)GalNAc
# In short: as §1
# [20] = target: Neu5Ac(a2-3)Gal(b1-3)GalNAc(b1-3)Gal(a1-4)Gal(b1-4)Glc
# In short: as §1
# [21] = target: Neu5Ac(a2-3)Gal(b1-3)GalNAc(b1-4)Gal(b1-4)Glc
# In short: as §1
# [22] = target: Neu5Ac(a2-3)Gal(b1-3)GalNAc(b1-4)[Neu5Ac(a2-3)]Gal(b1-4)Glc
# In short: as §1
# [23] = target: Neu5Ac(a2-3)Gal(b1-3)GalNAc(b1-4)[Neu5Ac(a2-8)Neu5Ac(a2-3)]Gal(b1-4)Glc
# In short: as §1
# [24] = target: Neu5Ac(a2-3)Gal(b1-3)GalNAc6S
# In short: as §1
# [25] = target: Neu5Ac(a2-3)Gal(b1-3)GlcNAc
# In short: as §1
# [26] = target: Neu5Ac(a2-3)Gal(b1-3)GlcNAc(b1-2)Man
# In short: as §1
# [27] = target: Neu5Ac(a2-3)Gal(b1-3)GlcNAc(b1-2)Man(a1-3)[GlcNAc(b1-4)][Neu5Ac(a2-3)Gal(b1-3)GlcNAc(b1-2)Man(a1-6)]Man(b1-4)GlcNAc(b1-4)GlcNAc
# In short: as §1
# [28] = target: Neu5Ac(a2-3)Gal(b1-3)GlcNAc(b1-2)Man(a1-3)[Neu5Ac(a2-3)Gal(b1-3)GlcNAc(b1-2)Man(a1-6)]Man(b1-4)GlcNAc(b1-4)GlcNAc
# In short: as §1
# [29] = target: Neu5Ac(a2-3)Gal(b1-3)GlcNAc(b1-2)[Neu5Ac(a2-3)Gal(b1-3)GlcNAc(b1-4)]Man(a1-6)[Neu5Ac(a2-3)Gal(b1-3)GlcNAc(b1-2)Man(a1-3)]Man(b1-4)GlcNAc(b1-4)GlcNAc
# In short: as §1
# [30] = target: Neu5Ac(a2-3)Gal(b1-3)GlcNAc(b1-3)Gal(b1-3)GlcNAc
# In short: as §1
# [31] = target: Neu5Ac(a2-3)Gal(b1-3)GlcNAc(b1-3)Gal(b1-4)GlcNAc
# In short: as §1
# [32] = target: Neu5Ac(a2-3)Gal(b1-3)GlcNAc(b1-3)GalNAc
# In short: as §1
# [33] = target: Neu5Ac(a2-3)Gal(b1-3)GlcNAc(b1-6)GalNAc
# In short: as §1
binder,measurement,setting,value
LecB PA14 (Pseudomonas aeruginosa) (protein) MATQGVFTLPANTQFGVTAFANSAGTQTVNVQVNNETVATFTGQSTNNAIIGSKVLNSGGGGKVQILVSVNGRSSDLVSAQVILANELNFALVGSEDSTDNDYNDAVVVINWPLG,glycan array binding signal (z-score),[1],-0.39
same,glycan array binding signal (z-score),[2],-0.69
same,glycan array binding signal (z-score),[3],-0.186
same,glycan array binding signal (z-score),GlcNAc(b1-6)GalNAc,-0.212
same,glycan array binding signal (z-score),[4],-0.543
same,glycan array binding signal (z-score),Kdn(a2-3)Gal(b1-3)GalNAc,1.52
same,glycan array binding signal (z-score),Kdn(a2-3)Gal(b1-3)GlcNAc,0.509
same,glycan array binding signal (z-score),Kdn(a2-3)Gal(b1-4)Glc,-0.194
same,glycan array binding signal (z-score),Kdn(a2-3)Gal(b1-4)GlcNAc,-0.618
same,glycan array binding signal (z-score),[5],0.594
same,glycan array binding signal (z-score),Kdn(a2-6)Gal(b1-4)GlcNAc,-0.512
same,glycan array binding signal (z-score),[6],1.26
same,glycan array binding signal (z-score),[7],2.31
same,glycan array binding signal (z-score),Man(a1-2)Man(a1-3)Man,0.523
same,glycan array binding signal (z-score),[8],-0.117
same,glycan array binding signal (z-score),[9],5.22
same,glycan array binding signal (z-score),[10],-0.658
same,glycan array binding signal (z-score),[11],0.847
same,glycan array binding signal (z-score),[12],-0.022
same,glycan array binding signal (z-score),[13],1.92
same,glycan array binding signal (z-score),Man(a1-3)[Man(a1-6)]Man,1.73
same,glycan array binding signal (z-score),[14],0.46
same,glycan array binding signal (z-score),[15],-0.57
same,glycan array binding signal (z-score),[16],1.82
same,glycan array binding signal (z-score),[17],-0.309
same,glycan array binding signal (z-score),[18],0.507
same,glycan array binding signal (z-score),Man(a1-6)Man,-0.545
same,glycan array binding signal (z-score),Man(b1-4)GlcNAc,-0.354
same,glycan array binding signal (z-score),MurNAc(b1-4)GlcNAc,-0.313
same,glycan array binding signal (z-score),Neu5Ac(a2-3)Gal,-1.05
same,glycan array binding signal (z-score),[19],-0.314
same,glycan array binding signal (z-score),[20],-0.704
same,glycan array binding signal (z-score),[21],-0.506
same,glycan array binding signal (z-score),[22],-0.117
same,glycan array binding signal (z-score),[23],-0.048
same,glycan array binding signal (z-score),[24],-0.688
same,glycan array binding signal (z-score),[25],-0.082
same,glycan array binding signal (z-score),[26],0.059
same,glycan array binding signal (z-score),[27],0.268
same,glycan array binding signal (z-score),[28],-0.761
same,glycan array binding signal (z-score),[29],-0.042
same,glycan array binding signal (z-score),[30],-0.29
same,glycan array binding signal (z-score),[31],-0.04
same,glycan array binding signal (z-score),[32],-0.584
same,glycan array binding signal (z-score),[33],-0.484
